Experimental findings from PubChem BioAssay AID1956 (SRMLSC, 2009) are described below.

As usually defined, the viability is a read-out of living cells in per cent, often relative to untreated cells.

The other results are listed elsewhere or left out. Shown are side measurements of this screen, not its main read-out; they come without a call.

The assay in a line: compounds boosting herpes simplex virus growth – fold increase, host cell viability (AID 1956). Note: tested in PC3 cells. As to conditions: HSV replication augmentation in cells; fold increase: measured here: primary screen fold increase 10 uM, at 10 µM, stronger effect = higher value; viability: measured here: host cell viability series, at 25 µM, stronger effect = lower value.
As for `COc1cc(/C=C2\Oc3cc(O)ccc3C2=O)ccc1O`, the fold increase stood at 4.8 and the viability stood at 101%.

On to `C/C(=C\C=C(C#N)C#N)c1cc(C#N)c(N)o1`, for which the fold increase was 2.5 and the viability came out at 92.5%.

For `COc1cc(/C=C(/C#N)c2nc3ccccc3c(=O)[nH]2)ccc1O`, the fold increase came out at 2.82 and the viability was 99.5%.

As to `COc1cc(/C=C2/NC(=O)N(Cc3ccccc3F)C2=O)cc(OC)c1O`, the fold increase was 1.49 and the viability worked out at 98.5%.

Take `Cc1cc(C(=O)C(=O)N(C)C)c(C)n1-c1ccc([N+](=O)[O-])cc1`: the fold increase came out at 1.36 and the viability was 93.1%.

With `COc1cccc(-c2nc(-c3ccc4c(c3)-c3ccccc3S4(=O)=O)c(-c3ccccc3)[nH]2)c1OC`, the fold increase turned out to be 1.18.

Regarding `CC1CC(C)CN(C(=O)CSc2nnc(-c3ccc(Cl)cc3)o2)C1` (configuration not stated), the fold increase turned out to be 1.42 and the viability worked out at 103%.

Regarding `CC1(C)SC(=S)N(c2ccccc2)C1/[N+]([O-])=C/c1cccc([N+](=O)[O-])c1` (configuration not stated), the fold increase was determined as 1.32.

Regarding `O=C(CN(c1ccc2c(c1)OCCO2)S(=O)(=O)c1ccccc1)Nc1ccc2c(c1)OCO2`, the fold increase was 1.35 and the viability is 86.9%.

On to `CC(C)(C)C(=O)/C=c1\s/c(=C\c2ccc(-c3ccc([N+](=O)[O-])cc3)o2)c(=O)n1CC(=O)NC(N)=O`, for which the fold increase was 4.74.

Consider `Cc1ccc(-c2nn3c(C)nnc3s2)cc1NC(=O)COc1ccc(Cl)cc1`, for which the fold increase was 1.36 and the viability is 101%.

For `COc1ccc(C(=O)/C=C/c2ccc(N(C)C)cc2)c(OC)c1`, the fold increase is 8.06 and the viability was found to be 56.4%.

With `COC(=O)c1cccc(NC(=O)C(C)(C)C)c1`, the fold increase was found to be 1.38 and the viability was determined as 96.9%.

As to `O=C(Nc1cccc(NC(=O)N2CCN(c3ccccc3)CC2)c1)N1CCN(c2ccccc2)CC1`, the fold increase worked out at 1.13.

On to `Cc1ccc(-c2nc(N)sc2CC(=O)OCC(=O)NC2CCCC(C)C2C)cc1` (configuration not stated), for which the fold increase was determined as 1.48 and the viability is 102%.

For the molecule `Cc1ccc(CSc2nnc(Cn3c(=O)sc4ccccc43)n2C)cc1`, the fold increase was 1.43 and the viability amounted to 97.8%.

On to `Cc1ccc(CNC(=O)C2CCN(S(=O)(=O)c3ccc4c(c3)OCCCO4)CC2)cc1`, for which the fold increase is 1.38 and the viability amounted to 90.3%.

`Cc1ccc(-c2nnn(CC(=O)N(Cc3ccco3)C(C(=O)NC3CCCC3)c3cccs3)n2)o1` (configuration not stated) gave a fold increase of 1.28.

In the case of `COc1cc(/C=C/C(=O)c2ccc(NS(=O)(=O)c3ccc(C)cc3)cc2)cc(OC)c1O`, the fold increase turned out to be 5.17 and the viability was found to be 44%.

As for `O=C(N/N=C/c1sc(N2CCOCC2)nc1-c1ccccc1)c1cccc(S(=O)(=O)N2CCOCC2)c1`, the fold increase turned out to be 1.66 and the viability is 22.5%.

As for `O=c1[nH]c2cc3ccccc3cc2nc1C(F)(F)F`, the fold increase is 3.44.

Turning to `O=C1c2cccc3c([N+](=O)[O-])ccc(c23)C(=O)N1c1nccs1`, the fold increase came out at 2.49.

For `FC(F)(F)c1ccc2c(c1)C1C=CCC1C(c1ccncc1)N2` (configuration not stated), the fold increase came out at 1.39 and the viability is 94%.

`Cc1ccc(CNC(=O)C2CCCN(Cc3cnn(-c4ccccc4)c3-n3cccc3)C2)cc1` (configuration not stated): the fold increase came out at 1.37 and the viability came out at 90.9%.

With `Cc1ccc(NC(=S)NCc2ccc3c(c2)OCO3)c(C)c1`, the fold increase turned out to be 1.33.

Consider `CC(C)COc1ccc2[nH]c3c(c2c1)CCCC3=O`, for which the fold increase is 1.11.

On to `O=C(N/N=C/c1c(O)ccc2ccccc12)c1cccc(C(F)(F)F)c1`, for which the fold increase was 8.07.

Take `COc1cccc(/C=N/NC(=O)c2ccc(=O)[nH]n2)c1O`: the fold increase turned out to be 1.35 and the viability came to 96.3%.

With `Cc1nc([N+](=O)[O-])cn1CC(O)c1ccc(Cl)cc1` (configuration not stated), the fold increase was determined as 1.84 and the viability was 102%.

For the molecule `Cc1cccc(N=C2NC(=O)S/C2=C\c2ccco2)c1`, the fold increase was determined as 1.6 and the viability worked out at 83.1%.

As for `CNC(=O)CN(C)S(=O)(=O)c1ccc(F)cc1`, the fold increase amounted to 1.53 and the viability amounted to 98.4%.

Turning to `COc1cc(C(=O)Oc2ccccc2/C=N/NC(=O)c2ccc(Cl)cc2Cl)cc(OC)c1OC`, the fold increase came to 1.21.

With `COc1ccc(-n2c(O)c(/C=N/NS(=O)(=O)c3cccc([N+](=O)[O-])c3)c3ccccc3c2=O)cc1OC`, the fold increase was found to be 1.33.

`CCOC(=O)c1[nH]c(CSc2nnnn2-c2ccccc2C)c(C(=O)OCC)c1C` displayed a fold increase of 1.15.

`Cc1c(-n2cc(C(=O)c3cc(Cl)ccc3O)cc(C#N)c2=O)c(=O)n(-c2ccccc2)n1C`: the fold increase was 1.34 and the viability turned out to be 93.7%.

On to `Cc1ccc(/C=C2\CCC3=C2OC(N)=C(C#N)C3c2ccc(C)cc2)cc1` (configuration not stated), for which the fold increase amounted to 1.53 and the viability came to 90.2%.

Turning to `NC(=O)c1c(NC(=O)CSc2nnc(-c3ccco3)n2N)sc2c1CCCC2`, the fold increase amounted to 1.35 and the viability is 99.1%.

Regarding `CCN1C(=O)/C(=C/C=C2/Sc3ccc4ccccc4c3N2CCO)SC1=S`, the fold increase was 2.33 and the viability was found to be 73.2%.

`CCOC(=O)c1sc(-n2[nH]c(C)cc2=O)nc1C` displayed a fold increase of 1.18.

`COc1cccc(NC2=Nc3cccc4cccc2c34)c1`: the fold increase is 1.43 and the viability came to 83%.

As for `COc1cc(C=C(c2nc3ccccc3s2)c2nc3ccccc3s2)cc(OC)c1O`, the fold increase was 1.95 and the viability is 91.7%.

With `CC(C)NC(=O)c1ccccc1NC(=O)c1ccccc1N(C)S(C)(=O)=O`, the fold increase is 1.35 and the viability is 99.2%.

Turning to `COc1cc(-c2cc(=O)c3c(O)cc(O)cc3o2)ccc1O`, the fold increase is 1.45 and the viability came to 88.6%.

In the case of `O=C(/C=C/c1ccncc1)c1cc(Cl)ccc1O`, the fold increase is 1.37 and the viability turned out to be 98.9%.

Consider `N#Cc1c(CSCC(=O)O)cc(=O)n2c1[nH]c1ccccc12`, for which the fold increase stood at 1.38 and the viability worked out at 101%.

For the molecule `O=c1oc2cc(O)ccc2cc1-c1nc2c(s1)CCc1ccccc1-2`, the fold increase is 7.61 and the viability was 88.8%.

Turning to `CCCCC1OC2(C)OC(=N)C1(C#N)C(C#N)(C#N)C2c1ccccc1` (configuration not stated), the fold increase came out at 1.93 and the viability stood at 87.7%.

As to `O=[N+]([O-])c1ccc(N2N=C(c3ccco3)CC2c2ccccc2)cc1` (configuration not stated), the fold increase was 1.49 and the viability turned out to be 94.5%.
